In the supplement of paper PMC10441789:
Some of the results follow. Antibody binding of pooled human sera (four to six donors per pool; dilution not stated) to peptides of the Trypanosoma cruzi antigen TSSA on microarrays. Quantile-normalised fluorescence in arbitrary units, mean of duplicate arrays; higher = more binding. No active / inactive call. The uninfected pools are read here as the healthy donors of the same country. The strongest signals lie near the top of the scale (about 60,000).

Experiments:
Assay in all cases: antibody binding signal (normalised fluorescence) (arbitrary fluorescence units); higher = stronger serum antibody binding to peptide
[1] = test system: pooled sera of chronic Chagas disease patients, Argentina
Method: (§1)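 Microarray of 15-residue peptides over residues 30-55 of Trypanosoma cruzi TSSAII, each with 1 to 10 substitutions at naturally variable positions, probed with one serum pool per country.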

[2] = test system: pooled sera of chronic Chagas disease patients, Bolivia
Method: as §1

[3] = test system: pooled sera of chronic Chagas disease patients, Brazil
Method: as §1

[4] = test system: pooled sera of chronic Chagas disease patients, Colombia
Method: as §1

[5] = test system: pooled sera of chronic Chagas disease patients, Mexico
Method: as §1

[6] = test system: pooled sera of chronic Chagas disease patients, USA
Method: as §1

[7] = test system: pooled sera of uninfected people, Argentina
Method: as §1

[8] = test system: pooled sera of uninfected people, Bolivia
Method: as §1

[9] = test system: pooled sera of uninfected people, Brazil
Method: as §1

[10] = test system: pooled sera of uninfected people, Mexico
Method: as §1

[11] = test system: pooled sera of uninfected people, USA
Method: as §1

Sequence	antibody binding signal [1]	antibody binding signal [2]	antibody binding signal [3]	antibody binding signal [4]	antibody binding signal [5]	antibody binding signal [6]	antibody binding signal [7]	antibody binding signal [8]	antibody binding signal [9]	antibody binding signal [10]	antibody binding signal [11]
GKDNKAAAGETPSQS	870	260	5360	1740	1910	1680	163	287	100	98.9	89.5
SGKENKAAAGGTPSP	3220	2350	17200	8800	3970	16600	5310	1250	425	217	149
TSSTPPSGKDNKAAA	10500	1420	4580	600	15400	2300	1130	491	129	89.8	373
PPSGKDKKAATGGTP	1150	314	528	954	29700	1370	234	247	191	81.8	105
STPPSGKDKKAATGG	9640	1020	1400	2960	33800	1250	188	419	108	105	126
PSGTEKKTAAGGAPS	6380	1620	2950	10600	5420	4110	428	282	219	270	623
TDKKTAAGETPSQSG	423	617	1370	312	320	1570	101	248	374	199	132
TDNKPAAGETPSQSG	939	460	19700	356	196	2440	77.4	462	200	375	83.8
STPPSGKDKKPAAGE	25300	4640	14700	331	48300	4390	1300	346	124	121	109
PSGTDNKTATGETPS	7840	15100	40400	255	264	6810	130	607	910	144	198
TEKKAAAGGTPSPPG	1250	169	250	8300	843	2700	158	116	1760	187	309
KDNKTAAGETPSQPG	1420	607	28500	2030	208	1370	525	389	194	156	202
PPSGKENKTATGGAP	5660	854	4690	1420	2750	3070	3220	1390	145	246	471
PSGKENKAATGETPS	6070	6900	15600	3550	4760	13000	5080	3650	251	394	345
GTENKPATGGAPSPP	44600	19300	7800	618	2090	3850	494	2050	737	244	200
STPPSGTEKKAATGG	37900	16000	29600	6960	11400	5020	947	503	204	219	322
DKKPATGGAPSPSGA	1250	808	1030	2930	956	2770	574	894	150	132	167
KDNKAATGETPSQPG	5980	2310	39900	319	261	11600	360	893	240	140	193
TEKKAATGGTPSPSG	1720	546	545	2870	1440	2320	268	157	1100	235	269
TISTPPSGKENKAAT	12000	2810	6900	713	2410	1970	2910	1100	194	153	440
GTDNKAATGETPSQS	3880	4980	36700	211	218	14100	88.7	555	1310	170	78.6
TPPSGKDNKPATGGT	4990	3700	29100	255	24400	13600	479	1210	776	386	258
SGTEKKPAAGGAPSQ	2290	345	5450	7460	2390	1890	175	1070	695	404	1200
GTDKKPAAGGTPSPP	398	383	1160	9790	523	1120	151	391	1600	503	192
KEKKTAAGGAPSQPG	192	540	725	2820	220	260	115	101	103	102	125
STPPSGKDNKPATGE	33100	35000	37000	322	19500	23400	544	1010	393	234	141
